Experimental data: the RNAGym collection of RNA variant scans (doi:10.7554/elife.90254)
The source gives no read counts; variants with many changes may rest on few reads.

B1: LINE1-mini (parent)
chain: GGCAGAGCUCAACACAGCGUGGCAAAGUGGCUGUGGCUAGACUGCC

Variants of: B1
Experiment: self-cleavage, relative activity (ratio to wild type); higher = more cleavage; in vitro, sequencing; the parent is a self-cleaving ribozyme

| Variant | self-cleavage |
| --- | --- |
| GGCAGAGCUCAACACAGCGUGGCAGCGUGGUUUUGGCUAGACUGCC [A25G A26C C31U G33U] | 0.02 |
| GGCAGAGCUCAACACAGCGUGGCUAAUUGGCUGUAGCUAGACUGCC [A24U G27U G35A] | 0.08 |
| GGCAGAGCUCAACACAGCGUGGCUAAGUGGCUGUGGCUAGACUCAC [A24U G44C C45A] | 0.07 |
| GGCAGAGCUCAACACAGCGUGGCUAAGUGGCUGAGGCUAGACCGCC [A24U U34A U43C] | 0.02 |
| GGCAGAGCUCAACACAGCGUGGCUAAGAGGUUGUGGCUAGACUGCC [A24U U28A C31U] | 1.24 |
| GGCAGAGCUCAACACAGCGUGGCACAGUGGCUGUGGCUUGUUUGCG [A25C A39U A41U C42U C46G] | 0.05 |
| GGCAGAGCUCAACACAGCGUGGCACAGCGGCGGUGGUUAGACUGCC [A25C U28C U32G C37U] | 0.06 |
| GGCAGAGCUCAACACAGCGUGGCACAGUGGCUGUGGCUUCACUGCC [A25C A39U G40C] | 0.07 |
| GGCAGAGCUCAACACAGCGUGGCUAAGGGGCUGUGGCCAGACUGCC [A24U U28G U38C] | 0.4 |
| GGCAGAGCUCAACACAGCGUGGCACAGUGGUUGUGGCUAGUCUGCC [A25C C31U A41U] | 0.11 |
| GGCAGAGCUCAACACAGCGUGGCACAGUGGCUGUAGCAAGACUGCC [A25C G35A U38A] | 0.2 |
| GGCAGAGCUCAACACAGCGUGGCACAGUGGCUGUAGCCAGACUGCC [A25C G35A U38C] | 0.11 |
| GGCAGAGCUCAACACAGCGUGGCUAAGUGGCUGUGGCUGCACAGCC [A24U A39G G40C U43A] | 0.09 |
| GGCAGAGCUCAACACAGCGUGGCUAAGUGGCUGUGGCUAGUCGGCC [A24U A41U U43G] | 0.04 |
| GGCAGAGCUCAACACAGCGUGGCACAGUGGCUACGGCAAGAUUGCC [A25C G33A U34C U38A C42U] | 0.01 |
| GGCAGAGCUCAACACAGCGUGGCUAAUUGACUGUGGCUAGACUGCC [A24U G27U G30A] | 1.2 |
| GGCAGAGCUCAACACAGCGUGGCAGCUUGGCUGUGGCUAGACCGCC [A25G A26C G27U U43C] | 0.1 |
| GGCAGAGCUCAACACAGCGUGGCUAAGUGGCUGUGGUUAUAUUGCC [A24U C37U G40U C42U] | 0.12 |
| GGCAGAGCUCAACACAGCGUGGCACAGUGUCUGCGCCUAGACUGGC [A25C G30U U34C G36C C45G] | 0.02 |

| Variant | self-cleavage |
| --- | --- |
| GGCAGAGCUCAACACAGCGUGGCUAAGUGGCUGUGGCUAUUCUGCC [A24U G40U A41U] | 0.42 |
| GGCAGAGCUCAACACAGCGUGGCAGCGUGACUGUGGCUAGACUGCC [A25G A26C G30A] | 1.25 |
| GGCAGAGCUCAACACAGCGUGGCACAGUGGCUCUAGUUAGACUGCC [A25C G33C G35A C37U] | 0.01 |
| GGCAGAGCUCAACACAGCGUGGCACAGUGGCCGAGGCUAGACUGCC [A25C U32C U34A] | 0.03 |
| GGCAGAGCUCAACACAGCGUGGCUGACUGACUGUGGCUAGACUGCC [A24U A25G G27C G30A] | 0.55 |
| GGCAGAGCUCAACACAGCGUGGCUAAGUGGCUGUGCCUAGUCUGCC [A24U G36C A41U] | 0.39 |
| GGCAGAGCUCAACACAGCGUGGCUAAGUGGCUAUGUCUAGUCUGCC [A24U G33A G36U A41U] | 0.17 |
| GGCAGAGCUCAACACAGCGUGGCACAGUUGCUGUUCCUGGACUGCC [A25C G29U G35U G36C A39G] | 0.03 |
| GGCAGAGCUCAACACAGCGUGGCACGGUGGCUGUGUCUAGAUUUCC [A25C A26G G36U C42U G44U] | 0.08 |
| GGCAGAGCUCAACACAGCGUGGCUAAGUUGCUGUGCCUAGACUCCC [A24U G29U G36C G44C] | 0.04 |
| GGCAGAGCUCAACACAGCGUGGCACAGUGUCUGUGGCUAGACUGCU [A25C G30U C46U] | 0.27 |
| GGCAGAGCUCAACACAGCGUGGCUAAGAAGUUGUGGCUGGACUGCC [A24U U28A G29A C31U A39G] | 0.15 |
| GGCAGAGCUCAACACAGCGUGGCUAAGCGGCUCUGGCUAGACUGCC [A24U U28C G33C] | 0.07 |
| GGCAGAGCUCAACACAGCGUGGCUAAGAGACUGUGGCUAGACUGCC [A24U U28A G30A] | 1.8 |
| GGCAGAGCUCAACACAGCGUGGCUAGCUGGCUGUGGCUAUACUGCC [A24U A26G G27C G40U] | 0.06 |
| GGCAGAGCUCAACACAGCGUGGCACAGUGGCUGUGGCUAGACUUGC [A25C G44U C45G] | 0.12 |
| GGCAGAGCUCAACACAGCGUGGCUAAGUGGCUGUUGCUAGACUACC [A24U G35U G44A] | 0.01 |
| GGCAGAGCUCAACACAGCGUGGCACAGUGGUUGUGGGUAGAUUGCC [A25C C31U C37G C42U] | 0.02 |
| GGCAGAGCUCAACACAGCGUGGCACAGUGGCUGUUGCUAGACUGAC [A25C G35U C45A] | 0.02 |

| Variant | self-cleavage |
| --- | --- |
| GGCAGAGCUCAACACAGCGUGGCUAAGUGGCUGUGACUACACUGCC [A24U G36A G40C] | 0.13 |
| GGCAGAGCUCAACACAGCGUGGCACAUUGGCUAUGGCUAGACUGCC [A25C G27U G33A] | 0.04 |
| GGCAGAGCUCAACACAGCGUGGCACAUUGGCUGUGGCUAGAUUGCC [A25C G27U C42U] | 0.08 |
| GGCAGAGCUCAACACAGCGUGGCUAUGCGGCUUUGGCUAGACUGCC [A24U A26U U28C G33U] | 0.2 |
| GGCAGAGCUCAACACAGCGUGGCUAAGUGGCUGUGGCUAGACUGAU [A24U C45A C46U] | 0.17 |
| GGCAGAGCUCAACACAGCGUGGCACAGUGGCUGUGGUCAUACUGCC [A25C C37U U38C G40U] | 0.02 |
| GGCAGAGCUCAACACAGCGUGGCUAAGUGGCUUCGGCUAGACUGCC [A24U G33U U34C] | 0.03 |
| GGCAGAGCUCAACACAGCGUGGCUAAGAGGCUGCGGCUAGACUGCA [A24U U28A U34C C46A] | 0.08 |
| GGCAGAGCUCAACACAGCGUGGCUCAGUGGCUGUGUCUAGACUGCC [A24U A25C G36U] | 0.06 |
| GGCAGAGCUCAACACAGCGUGGCACACCGGCUGUGGCUAAAUUGCC [A25C G27C U28C G40A C42U] | 0.24 |
| GGCAGAGCUCAACACAGCGUGGCACAGAGGCUGUGGCUACACUGCG [A25C U28A G40C C46G] | 0 |
| GGCAGAGCUCAACACAGCGUGGCACACUGGCUGUGCCUAGACUGCG [A25C G27C G36C C46G] | 0.01 |
| GGCAGAGCUCAACACAGCGUGGCUGAGUGACUGUGGCUUGACUGCC [A24U A25G G30A A39U] | 0.35 |
| GGCAGAGCUCAACACAGCGUGGCUACGUGGCUGUGGCUAUACUGCC [A24U A26C G40U] | 0.1 |
| GGCAGAGCUCAACACAGCGUGGCUAAGCGGCUCUGGCUUGACUGCC [A24U U28C G33C A39U] | 0.03 |
| GGCAGAGCUCAACACAGCGUGGCUAAGUGCCUGGGGCUAGACUGCC [A24U G30C U34G] | 0.03 |
| GGCAGAGCUCAACACAGCGUGGCACAGUGGCUGAGGCUGGACUGCC [A25C U34A A39G] | 0.03 |
| GGCAGAGCUCAACACAGCGUGGCACUGUGGGUGUGGCUAGACUGCC [A25C A26U C31G] | 0.06 |
